Results published in PMC4336329 (PLoS ONE, 2015).
The whole screen tested about 310,000 compounds, of which about 2,200 (0.71%) showed an effect of 50% or more. Effects have a minus sign here. The list shows a part of the results.

Molecular target: human ether-à-go-go-related gene (hERG) potassium channel (human, UniProt Q12809)
Assay: primary screen, population patch clamp on CHO cells stably expressing hERG

Sequence of human ether-à-go-go-related gene (hERG) potassium channel (Q12809 whole entry, looked up): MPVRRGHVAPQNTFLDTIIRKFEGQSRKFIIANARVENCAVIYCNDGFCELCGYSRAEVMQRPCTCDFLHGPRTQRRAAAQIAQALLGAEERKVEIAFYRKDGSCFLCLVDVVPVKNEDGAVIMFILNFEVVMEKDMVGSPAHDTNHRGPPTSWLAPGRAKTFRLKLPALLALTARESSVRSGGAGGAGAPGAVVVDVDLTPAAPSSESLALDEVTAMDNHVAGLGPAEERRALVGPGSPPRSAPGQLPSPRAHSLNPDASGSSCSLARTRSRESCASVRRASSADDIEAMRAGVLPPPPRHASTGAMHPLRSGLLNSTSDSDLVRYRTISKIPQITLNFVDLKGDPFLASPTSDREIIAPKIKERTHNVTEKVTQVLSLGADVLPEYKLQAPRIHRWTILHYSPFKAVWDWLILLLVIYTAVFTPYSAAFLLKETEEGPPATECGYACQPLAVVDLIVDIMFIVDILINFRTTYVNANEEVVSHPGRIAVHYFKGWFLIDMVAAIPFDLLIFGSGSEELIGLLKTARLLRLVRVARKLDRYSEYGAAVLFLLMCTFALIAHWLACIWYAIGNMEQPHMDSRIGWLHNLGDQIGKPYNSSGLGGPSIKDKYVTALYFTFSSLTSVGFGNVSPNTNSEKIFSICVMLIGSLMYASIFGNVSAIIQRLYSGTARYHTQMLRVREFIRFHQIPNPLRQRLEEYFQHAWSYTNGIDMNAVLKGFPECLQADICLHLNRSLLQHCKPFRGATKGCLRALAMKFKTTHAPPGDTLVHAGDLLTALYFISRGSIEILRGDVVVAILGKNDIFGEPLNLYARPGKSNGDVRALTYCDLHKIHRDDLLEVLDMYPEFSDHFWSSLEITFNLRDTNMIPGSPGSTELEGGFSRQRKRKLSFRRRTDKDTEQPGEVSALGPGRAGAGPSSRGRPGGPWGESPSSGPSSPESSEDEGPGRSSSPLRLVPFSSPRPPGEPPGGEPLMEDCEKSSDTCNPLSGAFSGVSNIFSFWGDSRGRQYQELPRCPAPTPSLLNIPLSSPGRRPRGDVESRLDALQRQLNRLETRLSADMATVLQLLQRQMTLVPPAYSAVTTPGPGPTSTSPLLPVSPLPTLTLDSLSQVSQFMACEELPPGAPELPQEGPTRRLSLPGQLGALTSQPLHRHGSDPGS

Point of comparison: `CCN(CC)CCN=CC1=C(O)CNC1=O`, “hERG current change (%, negative = inhibition) at 1uM” value 8.36%. Against it:
- O=C(NCc1cc(C(F)(F)F)cc(C(F)(F)F)c1)C1CC(c2ccccc2F)=NO1 (centres unmarked) — higher, 9.77%
- CCCCn1c(SCC(=O)NC(C)CC)nc2ccc(N3CCOCC3)cc2c1=O (centres unmarked) — lower, 4.61%
- CCc1cc(CNC(=O)CC2C(=O)NCCN2Cc2ccc(-c3ccccc3)cc2)on1 (centres unmarked) — lower, -0.485%
- CCC(C)C(Nc1ccc(C(=O)OC)cc1[N+](=O)[O-])C(=O)OC (centres unmarked) — higher, 17.1%
- CC(=O)c1c(N2CCCCC2)nc(=S)n(-c2ccccc2)c1C — lower, -0.721%
- O=c1[nH]c(=S)[nH]cc1S(=O)(=O)c1cccc(Cl)c1 — higher, 14.5%
- CC(=O)c1cccc(NC(=O)N2C[C@H]3C[C@@H](C2)c2cccc(=O)n2C3)c1 — higher, 8.97%
- Cc1ccc2c(c1)COc1c3ccc(C(=O)N4CCOCC4)cc3nn1-2 — lower, 2.38%
- CON(C)S(=O)(=O)c1cccc(C(=O)NC2CCSc3ccccc32)c1 (centres unmarked) — higher, 8.71%
- N#Cc1ccccc1CN1C(=O)S/C(=C/c2cccn2-c2cccc(C(=O)O)c2)C1=O — lower, -6.72%
- O=C(COc1ccccc1F)NC12CC3CC(CC(C3)C1)C2 — lower, 2.8%
- COc1ccccc1CNC(=O)c1ccc(CS(=O)(=O)c2ccc(C)cc2)o1 — lower, 3.63%
- O=c1ccnc2n1COCS2 — higher, 14.3%
- CCN(C(=O)COC(=O)c1cncc(Br)c1)C1CCS(=O)(=O)C1 (centres unmarked) — higher, 21.3%
- CCc1nnc(NC(=O)CCC(=O)NCc2ccc(OC)cc2)s1 — higher, 9.45%
- Cc1cccc(C(=O)Nc2cc(NC(=O)c3cccs3)ccc2C)c1 — higher, 11.1%
- Cc1ccc(NC(=O)CSC(C)c2nc3ccccc3c(=O)[nH]2)cc1 (centres unmarked) — lower, 7.19%
- CCSc1ncc(Cl)c(C(=O)Nc2ccccc2OC)n1 — higher, 12.5%
- CSCCC(NC(=O)c1ccc(Cl)cc1)C(=O)OCC(=O)Nc1ccc(C#N)cc1 (centres unmarked) — lower, -1.39%
- CCc1ccccc1OCCCCN1CCCCC1.O=C(O)C(=O)O — lower, -0.482%
- Cl.NC(=NCCc1ccccc1)c1cccc([N+](=O)[O-])c1 — lower, -10.5%
- CCS(=O)(=O)c1ccc(O)c(NC(=O)COc2ccc(Br)cc2)c1 — higher, 18.6%
- CCC(=O)N(Cc1cc(=O)[nH]c2ccccc12)c1ccc(C)cc1 — lower, -1.06%
- COc1ccc(NC(=O)CS(=O)c2cccc(Cl)c2)cc1 (centres unmarked) — lower, 1.95%
- COc1ccc(S(=O)(=O)Nc2ccccc2C(=O)NCc2cccnc2)cc1OC — higher, 13.6%
- COc1ccc(CN(C(=O)/C=C/C(=O)c2ccc(OC)cc2O)C(C(=O)NC2CCCCC2)c2ccncc2)cc1 (centres unmarked) — lower, 2.85%
- Cc1ccc(Oc2ccc(/C=N/O)cn2)cc1 — lower, 7.97%
- Cc1ccc(Oc2nc(CN3CCOCC3)nc3sc4c(c23)CCC(C)C4)cc1C (centres unmarked) — lower, 7.13%
- COC(=O)c1cc2c(=O)n3ccccc3nc2n(Cc2cccnc2)c1=N — lower, -51.5%
- COc1ccc(/C=C2\SC(=O)N(CCC(=O)NC3CCS(=O)(=O)C3)C2=O)cc1 (centres unmarked) — higher, 13.9%
- O=C(O)CSC(C(=O)Nc1ccc(Br)cc1)c1ccc(Cl)cc1 (centres unmarked) — higher, 10.8%
- Cc1ccc(C)c(NC(=S)NNC(=O)c2sccc2C)c1 — lower, -0.962%
- O=C(N/N=C/c1cccc(O)c1)c1cc(C2CC2)nc2ccccc12 — higher, 10.4%
- Cc1nc2ccccc2c(=O)n1NC(=O)c1ccc([N+](=O)[O-])cc1Cl — lower, 5.29%
- C=CCN=C1CC(C)(C)CC(=O)/C1=C(\O)CCCN1C(=O)c2ccccc2C1=O — lower, -1.29%
- COc1ccccc1CC(=O)N1CCOCC1 — higher, 18.6%
- Oc1ccc(Nc2nc(-c3ccccc3F)nc3ccccc23)cc1 — higher, 12.2%
- CSc1ccc(CN2CCN(C(=O)c3ccncc3)CC2)cc1 — lower, -0.743%
- COc1cccc(CN(C)C(=O)CNC(=O)c2ccc(-c3ccccc3)cc2)c1OC — higher, 14.3%
- O=C(OC(C(=O)Nc1ccc(Cl)cc1C(F)(F)F)c1ccccc1)c1c(Cl)cccc1Cl (centres unmarked) — higher, 9.62%
- COC(=O)CCC(=O)Nc1sc(Cc2ccccc2)c(C)c1C(N)=O — higher, 15%
- CCOC(=O)N1CCC(=NNc2ccc(S(N)(=O)=O)cc2[N+](=O)[O-])CC1 — lower, -6.16%
- CCCCn1c(N)c(Sc2ccccc2)c(=O)[nH]c1=O — lower, 4.27%
- COc1ccc(N(CC(=O)Nc2cc(C)on2)S(=O)(=O)c2ccc(Cl)cc2)cc1 — higher, 12.1%
- CC(C)Nc1nc(NC(C)C)nc(C(N)=O)n1 — lower, 4.9%
- COc1ccc(CNC(=O)N2CCN(c3ccc(F)cc3)CC2)cc1Cl — lower, 5.88%
- O=C(Cc1ccc(Cl)cc1)Nc1ccc(CN2CCCCC2)cc1 — lower, -24.2%
- O=C(O)Cn1c(-c2ccccn2)nc2ccccc21 — lower, 3.01%
- Cc1noc(C)c1CN1C(=O)NC(Cc2ccccc2)(Cc2ccccc2)C1=O — higher, 10.5%
- COc1ccc(N(C(=O)CNC(=O)c2cccs2)C(C(=O)NC2CCCC2)c2cccnc2)cc1 (centres unmarked) — higher, 9.45%
- CCN(CC)c1ccc(/C=N/NC(=S)NCc2ccccc2)cc1 — lower, 8.08%
- CC1CCc2cc(F)ccc2N1C(=O)c1cc2nc(-c3ccco3)cc(C(F)(F)F)n2n1 (centres unmarked) — higher, 17.6%
- C=C(C)CN(CC)C(=O)CCc1nnc(CCCc2ccccc2)o1 — higher, 10.8%
- OC(Cn1cncn1)c1ccc(Cl)cc1 (centres unmarked) — lower, 7.62%
- O=C(CNc1cc(S(=O)(=O)N2CCCC2)ccc1OCC(F)(F)F)Nc1cc(Cl)cc(Cl)c1 — lower, 3.7%
- CC(=O)Nc1ccc(S(=O)(=O)NCCC(=O)Nc2ccc(C)cn2)cc1 — higher, 8.79%
- CCOC(=O)c1cccc(NC(=O)N[C@@H](C)C(=O)OC)c1 — higher, 12.2%
- COC(=O)c1ccc(C(C(=O)NC2CCCCC2)N(Cc2ccccc2)C(=O)Cc2cccs2)cc1 (centres unmarked) — lower, 5.76%
- CCOc1ccc(S(=O)(=O)Nc2ccccc2C(=O)N/N=C/c2c(OC)ccc3ccccc23)cc1 — lower, 2.25%
- CCC(C)c1ccc(NC(=O)c2cccnc2)cc1 (centres unmarked) — lower, 7.26%
- CCOc1ccc(C2N(c3ccc(Cl)cc3)C(=O)C3CCCN32)cc1OC (centres unmarked) — lower, 0.943%
- CCS(=O)(=O)Nc1ccc(-c2ccc(NS(=O)(=O)CC)c(OC)c2)cc1OC — lower, 5.36%
- Cc1ccc(Cn2c(NCCc3ccccc3)nc3c2c(=O)n(C)c(=O)n3C)cc1 — higher, 12.5%
- CCCOc1ccc(N2C(=O)CC(N(CCCO)C(=O)CC)C2=O)cc1 (centres unmarked) — higher, 18.8%
- COc1ccc(C)cc1NC(=O)Nc1ccncc1 — higher, 12.1%
- CC(=O)c1ccc(S(=O)(=O)N2CCC(c3nnc(SCCN4CCCC4)n3C)CC2)cc1 — higher, 13.5%
- CCOC(=O)C1=C(C)N=c2s/c(=C\c3ccc(OCC(=O)O)cc3)c(=O)n2C1c1ccccc1 (centres unmarked) — higher, 14.6%
- O=C(COc1ccccc1)N1CCN(c2ncnc3c2cnn3-c2ccccc2)CC1 — lower, -18.9%
- CCOc1c(C)cnc2c1c(=O)n(Cc1c(F)cccc1Cl)c(=O)n2C — lower, 7.13%
- CCc1ccc(-c2cc(C)no2)cc1S(=O)(=O)N1CCN(c2ccccn2)CC1 — higher, 13%
- COC(=O)Cc1c(C)c2ccc(OCC(=O)NCc3ccc4c(c3)OCO4)cc2oc1=O — higher, 10%
- COCCN(CC(=O)Nc1cccc(C)c1C)C(=O)CN1C(=O)NC2(CCCCC2)C1=O — higher, 15.9%
- COc1cc(C2/C(=C(\O)c3ccc4c(c3)OCCO4)C(=O)C(=O)N2Cc2ccco2)ccc1O (centres unmarked) — higher, 11.6%
- Cc1nc2sccn2c(=O)c1S(=O)(=O)NCCc1ccccc1 — lower, -10.2%
- O=C(NC(=O)N1CCN(c2ccccc2)CC1)c1ccc(Cl)cc1 — lower, 4.57%
- CC(Oc1ccc(C(C)(C)C)cc1)c1ccnc2nc(/N=C/N(C)C)nn12 (centres unmarked) — lower, -8.58%
- CC1CCC(NC(=O)c2ccc(NC(=O)CC3SC(N4CCCC4)=NC3=O)cc2)CC1 (centres unmarked) — higher, 12%
- CCOC(=O)C1CCCN(C(=O)c2ccc(C)cc2O)C1 (centres unmarked) — lower, 4.54%
- CC(=O)C1=C(O)C(=O)N(CCC(=O)O)C1c1ccc(Cl)cc1Cl (centres unmarked) — higher, 15.3%
- COc1cc(C=C2C(=O)NC(=O)NC2=O)ccc1OS(=O)(=O)c1ccccc1[N+](=O)[O-] — higher, 13.6%
- Cc1cc(C(=O)Nn2cnnc2)ccc1[N+](=O)[O-] — higher, 13.1%
- O=C(CSc1nnc(-c2ccco2)n1-c1ccccc1)N1CCN(C(=O)c2ccco2)CC1 — lower, 4.92%
- CCN(CC)S(=O)(=O)c1ccc(N2CCOCC2)c(NC(=O)COc2ccc(OC)cc2)c1 — lower, -4.52%
- O=c1ncn(-c2ccc(F)cc2)c2ncccc12 — lower, -3.2%
- NC(N)=Nc1nc(-c2ccccc2)c2cc(F)ccc2n1 — lower, -15%
